Reference: PubChem BioAssay AID1948 (National Center for Advancing Translational Sciences (NCATS), 2009)
Screen size: about 110,000 compounds; about 20 (0.02%) were called active. Inconclusive means that the source gave no clear call. Such entries were picked first, then a sample of the others. Calls come from the whole dose curve; as a rule, active = well fitted activation curve with a large enough effect; inconclusive = small, poorly fitted or top-dose-only effect; inactive = no such curve, though single readings can be large or run the other way. Potencies of inconclusive entries are left out as doubtful fits.

Assay: qHTS Assay for Compounds that Induce Erasure of Genomic Imprints;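 for activity change, positive = activation: 0% = negative control wells on the plate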
Conditions: mouse ES Peg3-LacZ reporter, beta-gal luminescence, 40 h; activity change, positive = activation: at 10.9 µM (top of the series) unless noted
From the text: qHTS Assay for Compounds that Induce Erasure of Genomic Imprints NIH Chemical Genomics Center [NCGC] NIH Molecular Libraries Screening Centers Network [MLSCN] Assay Submitter (PI): JEFFRIES, SEAN, NCGC, University of Cambridge NCGC Peg3 Imprinting Assay Overview Genomic imprinting is the epigenetic process whereby genes are expressed in a parent of origin fashion. […] Unlike some forms of epigenetic silencing that can be overcome by overexpression of transcription factors, genomic imprinting stably represses the expression of one allele despite potentially high levels of expression from the other allele. […] During mouse embryonic day 11.5 imprints are erased in PGCs so that sex specific imprints can be reestablished during gametogenesis. Embryonic germ (EG) cells can be derived from developing PGCs at embryonic day 11.5 and these cells often lack genomic imprints. […] Embryonic stem (ES) cells are a cell type similar to EG cells in phenotype and transcriptional profile, yet ES cells maintain genomic imprints. This similarity between ES and EG cells prompted us to use ES cells to look for factors which could induce imprint erasure. To investigate the stability of genomic imprinting, ES cells were derived from mice with an insertion of a LacZ-Neomycin reporter construct in the Peg3 locus. Peg3 is an imprinted locus where gene expression is restricted to the paternal allele. […] Using LacZ expression we are able to monitor the state of the Peg3 imprint. In order to dissect the mechanisms involved in imprint erasure using a forward chemical genetics approach we developed a cell based phenotype assay using an endogenous silence imprinted locus. This assay utilizes maternally inherited Peg3LacZ-Neo ES cells by monitoring the LacZ expression from the normally silent Peg3 allele. To facilitate screening, high-density feeder-free ES cell culture has been optimized so that ES cells can be grown in 1536 for over four days without feeding or washes. The assay uses a luminescence based read out for LacZ activity and is a homogenous assay optimal for HTS.
NCGC Peg3 Imprinting Assay Protocol Summary ES cell lines were derived from blastocysts taken from Peg3LacZ-Neo x129 matings. Lines were sexed and genotyped for the Peg3LacZ-Neo allele. Female cells carrying the reporter allele were used in this study. Cells were derived on a layer of mouse embryonic fibroblasts and passaged multiple times before switching to feeder free culture. Cells were maintained feeder free on gelatin coated dishes in DMEM/F12 media supplemented with 15% FBS, 2mM L-glutamine, 100 units/ml penicillin, 100ug/ml streptomycin, 0.1mM MEM nonessential amino acids, 1mM sodium pyruvate, 0.1% sodium bicarbonate, 0.1mM 2-Mercaptoethanol, and 400 units/ml leukemia inhibitory factor (LIF) at 37C with 5% CO2. The assay was performed in 1536-well format. A single luminescence read was taken at the end of the assay and the data was normalized by plate to internal negative controls. Maximum efficacy and AC50 values were calculated from dose-response data using the standard Hill equation. 1536 well plates were filled with 0.5ul of 0.1% gelatin per well, spun down and incubated for at least 30 min at 37C. The ES cells were then trypsini Peg3 1536-well assay protocol: (1)Plate 0.5ul/well 0.1% gelatin in white tissue culture treated 1536-well plates, spin and incubate at 37C for at least 30 min. (2)Add 5ul/well (300 cells) of ES cell suspension from freshly trypsinized cells and incubate at 37C, 5% CO2 for 40 hours. (3)Add 5ul/well of freshly prepared BetaGlo solution and incubate at room temperature for 5 minutes. (4)Read luminescence on the ViewLux plate reader. Keywords Genomic Imprinting, Germ Cells, Embryonic Stem Cell, DNA Methylation, Peg3, qHTS, NIH roadmap, NCGC
Potency is the fitted concentration of half-maximal effect; tags give direction and shape of the fitted curve.

SMILES | activity change, positive = activation | Potency
O=C(CSc1nc(=O)[nH]c2c1CCCC2)NCc1ccc(Cl)cc1 | inactive: 2.83% | 
Cc1cccc(C)c1NC(=O)C1(NC(=O)C2CCCN2C(=O)OC(C)(C)C)CCCCC1 (stereo not drawn) |  | inconclusive [activator, single point]
CCOc1ccc(S(=O)(=O)n2c(C)nc3ccccc32)cc1 | inactive: -24.2% [at 60.7 µM] | 
NC(=O)c1ccsc1NC(=O)CSc1nc2ccccc2c(=O)n1CCCO |  | inconclusive [activator, partial curve]
CCOC(=O)C1=C(N)N(c2ccc(N3CCCCC3)cc2)C(=O)C1 |  | inconclusive [activator, single point]
COc1cc(OC)cc(C(=O)Nc2nnc3n2CCS3)c1 | inconclusive: 104% [activator] | 
Cc1ccc(Cn2nnc3c(=O)n(Cc4cccc(C)c4)cnc32)cc1 |  | inconclusive [activator, single point]
Cc1ccc(C(=O)Nc2nnc(S(=O)(=O)N3CCN(c4ccc(F)cc4)CC3)s2)cc1 | inconclusive: 41.1% [activator] | 
Cc1ccc2scc(N3CCCCC3)c(=O)c2c1 | inactive: -7.45% | 
CC(=O)c1ccc(NC(=O)c2cc(-c3ccc4c(c3)OCO4)on2)cc1 | inactive: 7.45% | 
COc1ccccc1N1CCN(C(=O)c2c(C)oc3ncn(CC(C)C)c(=O)c23)CC1 | inconclusive: 46% [activator] | 
CCOC(=O)c1[nH]c2ccc(OC)cc2c1NC(=O)c1nonc1C | inactive: -10.4% [at 60.7 µM] | 
COc1cn(CC(=O)Nc2ccccc2)c(CN2CCCCC2)cc1=O | inactive: -18.9% | 
Cc1ccc(-n2c3c(cc(C(=O)Nc4cccc(Cl)c4)c2=O)C(=O)CC(C)(C)C3)cc1 | inconclusive: 43.4% [activator] | 
N#Cc1ccccc1NC(=O)c1ccc(-c2ccccc2Cl)o1 | inactive: -8.45% [at 60.7 µM] | 
CCOC(=O)c1ccccc1NC(=O)NCc1cccn1Cc1ccc(F)cc1 | inconclusive: 43.8% [activator] | 
Cc1ccc(Cn2ccnc2SCC(=O)Nc2ccccc2C(F)(F)F)cc1 | inconclusive: 35.2% [activator] | 
CCOC(=O)c1ccc(NC(=O)COc2cccc3c(=O)n(C)ccc23)cc1 | inconclusive: 38.8% [activator] | 
COc1ccc(NC(=O)CN2CCN(CC(=O)Nc3ccccc3F)CC2)cc1OC | inconclusive: 47.7% [activator] | 

SMILES | activity change, positive = activation | Potency
COc1ccc(NC(=O)CSc2nc(-c3ccccc3)[nH]c2-c2ccccc2)cc1OC | inactive: -9.86% | 
COc1ccccc1CCNC(=O)C(=O)NCC(c1ccco1)S(=O)(=O)c1ccccc1 (stereo not drawn) | inactive: -8.21% | 
COc1cccc(-c2nc(SCc3ccc(C)cc3)n3[nH]c(=O)cc3n2)c1 | inconclusive: 35.4% [activator] | 
CN(C)Cc1ccccc1-c1cc(NCc2ccccc2)ncn1 | inactive: 1.91% [at 60.7 µM] | 
Cc1ccc(CNC(=O)c2ccc3c(c2)nc2n3CCCC2)cc1 | inconclusive: 36.9% [activator] | 
O=C(Nc1ccc2c(c1)OCO2)C(c1ccccc1)N1CCCCC1 (stereo not drawn) |  | inconclusive [activator, single point]
CCn1cc(C(=O)NCc2ccccc2OC)c(=O)c2cc(S(=O)(=O)N3CCCCCC3)ccc21 | inconclusive: 46.9% [activator] | 
CSc1cccc(Nc2cc(C(=O)NCCCN(Cc3ccccc3)C(C)C)c3ccccc3n2)c1 | inactive: -13.2% | 
Cn1c(=O)oc2cc(S(=O)(=O)N3CCCC(C(=O)N4CCN(c5ccccc5F)CC4)C3)ccc21 (stereo not drawn) | inconclusive: 33.8% [activator] | 
CCOc1ccccc1C(=O)NC1CC2CCCC(C1)N2C1CC1 (stereo not drawn) |  | inconclusive [activator, single point]
CCc1ccc(S(=O)(=O)c2c(C(=O)c3ccc(C)c(C)c3)cnc3ccccc23)cc1 | inconclusive: 30.5% [activator] | 
N#Cc1ccc2c(c1)N(CCCN1CCC(O)CC1)c1ccccc1S2 | inactive: 1.76% [at 60.7 µM] | 
O=C(Nc1sc2c(c1C(=O)NC1CCCCC1)CCC2)c1ccco1 | inactive: -7.97% [at 60.7 µM] | 
Cc1cccc(NC(=O)Cn2c(=O)n(CCc3ccccc3)c(=O)c3sc4ccccc4c32)c1 | inconclusive: 51.3% [activator] | 
CN1CCN(C(=O)c2ccc3c(c2)NC(=O)C(N2CCOCC2)S3)CC1 (stereo not drawn) |  | inconclusive [activator, single point]
CN1C=CC=C/C1=C(\C#N)c1nc2ccccc2[nH]1 | inactive: -4.5% [at 60.7 µM] | 
CCc1ccc(N2C(=O)c3sc4nnc(C)c(=O)n4c3C2=O)cc1 | inactive: -23.3% [at 60.7 µM] | 
Cc1c(NC(=O)Nc2cccc(C(F)(F)F)c2)sc2nc3n(c(=O)c12)CCC(C)CC3 (stereo not drawn) | inconclusive: 31.1% [activator] | 
COc1ccc(OC)c(CNS(=O)(=O)c2cc(-c3onc(C)c3C)ccc2C)c1 | inconclusive: 46.9% [activator] | 
